According to PubChem BioAssay AID1030 (National Center for Advancing Translational Sciences (NCATS), 2008):
The campaign covered roughly 220,000 compounds. About 16,000 (7.3%) were called active. This list was built around the results that the source calls inconclusive (neither active nor inactive); the mix of calls is not that of the screen. Calls come from the whole dose curve; as a rule, active = well fitted inhibition curve with a large enough effect (not every such curve was filed as active); inconclusive = small, poorly fitted or top-dose-only effect, or another doubt; inactive = no such curve, though single readings can be large or run the other way. Potencies of inconclusive entries are left out as doubtful fits.

The compounds below were run against Aldehyde dehydrogenase 1A1 (Homo sapiens) (UniProt P00352) (assay: qHTS Assay for Inhibitors of Aldehyde Dehydrogenase 1 (ALDH1A1)). Settings: Purified ALDH1A1, NADH fluorescence, propionaldehyde substrate; series mostly up to 75.3 µM.
UniProt P00352, sequence (P00352 whole entry, looked up): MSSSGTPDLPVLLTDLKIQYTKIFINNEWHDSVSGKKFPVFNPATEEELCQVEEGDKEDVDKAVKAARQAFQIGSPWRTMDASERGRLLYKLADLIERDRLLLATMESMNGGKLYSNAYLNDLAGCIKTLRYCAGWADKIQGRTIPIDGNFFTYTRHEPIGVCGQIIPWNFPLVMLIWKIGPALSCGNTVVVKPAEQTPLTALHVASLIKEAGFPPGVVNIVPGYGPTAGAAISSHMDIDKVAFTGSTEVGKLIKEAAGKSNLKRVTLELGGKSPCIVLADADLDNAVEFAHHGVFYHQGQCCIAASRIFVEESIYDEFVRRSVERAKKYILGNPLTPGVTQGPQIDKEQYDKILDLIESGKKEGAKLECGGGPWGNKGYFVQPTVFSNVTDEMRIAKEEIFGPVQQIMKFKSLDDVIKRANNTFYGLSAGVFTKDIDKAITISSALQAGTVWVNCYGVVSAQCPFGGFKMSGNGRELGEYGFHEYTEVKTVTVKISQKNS
Potency is the fitted concentration of half-maximal effect; tags give direction and shape of the fitted curve.
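Throughout, for activity, negative = inhibition: plate controls were no enzyme wells and a reference inhibitor.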

Question: How did the Potency turn out when `O=C(Nc1ccc(N2CCOCC2)nc1N1CCOCC1)c1cccc(C(F)(F)F)c1` was run?
Answer: Its Potency is “inactive”.

Question: `O=C(CCCn1c(SCc2cc(=O)n3ccccc3n2)nc2ccccc2c1=O)NCC1CCCO1` (stereo not given) was tested. Which Potency did it give?
Answer: The Potency was inconclusive [inhibitor, single point].

Question: `C/C(=N\NC(=S)Nc1ccc(C(C)C)cc1)c1ccc2c(c1)OCO2` was tested. Which Potency did it give?
Answer: The Potency was inconclusive [inhibitor, single point].

Question: With `COc1cc(/C=C/C(=O)N2CCN(c3n[nH]c(=O)[nH]c3=O)CC2)cc(OC)c1OC` as the compound, how does the Potency read?
Answer: The Potency was “inactive”.

Question: Which Potency does the source give for `CC(=O)NCCC1CCCCN1Cc1nc(Cc2cccc(C(F)(F)F)c2)no1` (stereo not given) here?
Answer: The Potency was “inactive”.

Question: With `CCc1ccc(-c2cc(C(=O)Nc3ccc(S(=O)(=O)NC(C)=O)cc3)c3ccccc3n2)cc1` as the compound, how does the Potency read?
Answer: The Potency was inconclusive [inhibitor, partial curve].

Question: How did the Potency turn out when `O=C(CSc1nnc2n(C3CCCCC3)c(=O)c3ccccc3n12)OC1CCCCC1` was run?
Answer: The Potency was inconclusive [inhibitor, full curve].

Question: With `CCN(CC)c1ncc(C)c(=O)[nH]1` as the compound, how does the Potency read?
Answer: The Potency was inconclusive [inhibitor, single point].

Question: With `COC(=O)c1ccc(N/C=C/C(=O)c2ccc(OC)c(OC)c2)cc1` as the compound, how does the Potency read?
Answer: Its Potency is inconclusive [inhibitor, single point].

Question: For `COc1ccc(-n2c3c(c(=O)[nH]c2=O)C(NC(=O)c2ccncc2)(C(F)(F)F)C(=O)N3)cc1` (stereo not given), which Potency is on record?
Answer: Its Potency is “inactive”.

Question: Which Potency does the source give for `Cc1ccc(-n2nnnc2SCC(=O)c2cc(C)n(-c3cc(C)on3)c2C)c(C)c1` here?
Answer: The Potency was active: 2.24 µM.

Question: `O=C(CSc1nnc(-c2ccco2)o1)NC(=O)Cc1ccccc1` was tested. Which Potency did it give?
Answer: The Potency was inconclusive [inhibitor, single point].

Question: With `COc1ccc(-n2c(=O)c(CCc3ccccc3)nc3cnc(N4CCNCC4)nc32)cc1` as the compound, how does the Potency read?
Answer: Its Potency is inconclusive [inhibitor, partial curve].

Question: How did the Potency turn out when `O=C(COc1ccccc1[N+](=O)[O-])c1ccccc1` was run?
Answer: Its Potency is active: 2 µM.

Question: Which Potency does the source give for `CCC(=O)Nc1ccc2c(c1)C(=O)N(C)C2=O` here?
Answer: The Potency was inconclusive [inhibitor, partial curve].

Question: Which activity, negative = inhibition does the source give for `CC(=O)OC[C@@H]1O[C@H](CCO/N=C(\C)CCN2CCCCc3nc(C)c(C)cc32)C=C[C@@H]1OC(C)=O` here?
Answer: Its activity, negative = inhibition is inactive: -4.17% [at 13.5 µM].

Question: For `CC(C)(Oc1ccc(Cl)cc1)C(=O)Nc1ccc2oc(-c3ccncc3)nc2c1`, which Potency is on record?
Answer: The Potency was inconclusive [inhibitor, partial curve].

Question: `N#Cc1nc(Cc2cccc3ccccc23)oc1NCc1ccc(F)cc1` was tested. Which Potency did it give?
Answer: The Potency was “inactive”.

Question: Which Potency does the source give for `CCOC(=O)c1ccc(NC(=O)c2cc(=O)[nH]c3ccccc23)cc1` here?
Answer: The Potency was “inactive”.

Question: With `Cc1ccccc1C(=O)NNC(=S)NC(=O)c1cccnc1` as the compound, how does the Potency read?
Answer: Its Potency is active: 25.1 µM.

Question: Which Potency does the source give for `CCCc1cc(=O)n2[nH]c(-c3ccc(C)cc3)cc2n1` here?
Answer: Its Potency is inconclusive [inhibitor, single point].

Question: For `O=C(CNC(=S)N(Cc1ccccc1)Cc1ccccc1F)NCCc1ccccc1`, which Potency is on record?
Answer: The Potency was inconclusive [inhibitor, single point].

Question: Which Potency does the source give for `Cc1cc(C)cc(OCC(=O)Nc2ccc3c(c2)C(=O)c2ccccc2C3=O)c1` here?
Answer: The Potency was inconclusive [inhibitor, single point].

Question: Which Potency does the source give for `CC1=NN(C(N)=S)C(=O)C1N=Nc1ccc(O)cc1` (stereo not given) here?
Answer: Its Potency is inconclusive [inhibitor, single point].

Question: How did the Potency turn out when `Cc1ccc(/C=N\NC(=O)Cn2nnc3ccccc32)o1` was run?
Answer: Its Potency is inconclusive [inhibitor, single point].

Question: For `Cc1nc(NC2=NCN(C3CCCCC3C)CN2)nc2ccccc12` (stereo not given), which Potency is on record?
Answer: The Potency was “inactive”.

Question: For `COc1cc(/C=C/C(=O)Nc2cc(S(=O)(=O)N3CCOCC3)ccc2N2CCCC2)cc(OC)c1OC`, which Potency is on record?
Answer: The Potency was active: 11.2 µM.

Question: How did the Potency turn out when `Cc1nc2ccccc2c(=O)n1/N=C/c1ccc([N+](=O)[O-])o1` was run?
Answer: The Potency was active: 18.9 µM.

Question: For `Cc1cc(C(=O)NC(=S)Nc2ccccc2N2CCOCC2)ccc1[N+](=O)[O-]`, which Potency is on record?
Answer: The Potency was active: 10 µM.

Question: With `O=C(COC(=O)[C@H](Cc1ccccc1)NC(=O)c1cccs1)Nc1ccccc1C(F)(F)F` as the compound, how does the Potency read?
Answer: The Potency was inconclusive [inhibitor, single point].

Question: `C/C(Cc1ccccc1)=N\NC(=O)CNC(=O)c1ccc(C(C)(C)C)cc1` was tested. Which Potency did it give?
Answer: Its Potency is “inactive”.

Question: With `COc1cc2[nH]c(=O)n(CCCCCC(=O)NCCCN3CCOCC3)c(=O)c2cc1OC` as the compound, how does the Potency read?
Answer: The Potency was inconclusive [inhibitor, partial curve].

Question: Which Potency does the source give for `COC(=O)CCCSc1nccn1-c1ccccc1` here?
Answer: Its Potency is “inactive”.

Question: `CC(=O)c1coc2c1cc(O)c1ccccc12` was tested. Which Potency did it give?
Answer: The Potency was “inactive”.

Question: With `CCOc1ccc(/C=N/NC(=O)C(=O)NCc2ccco2)cc1` as the compound, how does the Potency read?
Answer: Its Potency is “inactive”.

Question: `CCN(CC)S(=O)(=O)c1cccc(NC(=S)NC(=O)/C=C/c2ccc(S(=O)(=O)N3CCOCC3)cc2)c1` was tested. Which Potency did it give?
Answer: Its Potency is “inactive”.

Question: Which Potency does the source give for `NC(=O)c1oc2ccccc2c1NC(=O)c1ccccc1` here?
Answer: Its Potency is inconclusive [inhibitor, single point].

Question: With `COc1ccc([N+](=O)[O-])cc1NC(=O)COC(=O)c1ccccc1O` as the compound, how does the Potency read?
Answer: Its Potency is “inactive”.

Question: For `COc1ccc(NC(=O)c2sc(N)nc2-c2ccccc2)cc1`, which Potency is on record?
Answer: The Potency was “inactive”.

Question: For `CCc1nnc(NC(=O)CSc2n[nH]c(-c3ccccc3O)n2)s1`, which Potency is on record?
Answer: The Potency was inconclusive [inhibitor, single point].

Question: `CCOc1ccc(C(=O)Cc2ccc3oc(C(=O)O)cc3c2)c(O)c1` was tested. Which Potency did it give?
Answer: The Potency was inconclusive [inhibitor, single point].

Question: `c1ccc(CN2c3ccccc3-c3nc4ccccc4n3C2c2ccccn2)cc1` (stereo not given) was tested. Which Potency did it give?
Answer: Its Potency is inconclusive [inhibitor, partial curve].

Question: With `CCOC(=O)CSc1nc2ccc(S(=O)(=O)N3CCOCC3)cc2[nH]1` as the compound, how does the Potency read?
Answer: The Potency was “inactive”.

Question: Which Potency does the source give for `COc1ccc(NC(=O)c2cc(-c3ccccc3)oc2C)cc1` here?
Answer: The Potency was inconclusive [inhibitor, partial curve].

Question: `CC(C)COc1ccc(C(=O)Nc2ccccc2[N+](=O)[O-])cc1` was tested. Which Potency did it give?
Answer: The Potency was “inactive”.

Question: With `O=C(NCCCN1CCCCC1)c1ccc2c(=O)n(CCc3ccccc3)c(=O)[nH]c2c1` as the compound, how does the Potency read?
Answer: Its Potency is inconclusive [inhibitor, single point].

Question: With `NNC(=O)c1ccc(COc2cccc3ccccc23)cc1` as the compound, how does the Potency read?
Answer: The Potency was active: 7.94 µM.

Question: With `CCN(CC)c1ccc(/C=N/OC(C)C(=O)Nc2ccc(C)cc2)cc1` (stereo not given) as the compound, how does the Potency read?
Answer: The Potency was inconclusive [inhibitor, single point].

Question: Which Potency does the source give for `CCCCN(C)C1=CC2=CC(=C(C#N)C#N)CCC2CC1` (stereo not given) here?
Answer: Its Potency is inconclusive [inhibitor, single point].

Question: With `O=C(CS(=O)(=O)c1c[nH]c2ccccc12)Nc1ccc2c(c1)OCCO2` as the compound, how does the Potency read?
Answer: Its Potency is inconclusive [inhibitor, single point].

Question: How did the Potency turn out when `COc1ccc(C(c2nnnn2CCc2ccccc2)N2CCN(C3CCCC3)CC2)cc1OC` (stereo not given) was run?
Answer: Its Potency is “inactive”.

Question: With `COc1ccc(C(=O)Nc2ccc(C)cn2)c(OC)c1` as the compound, how does the Potency read?
Answer: The Potency was “inactive”.

Question: With `CCN(CC)C(=O)CCCOc1ccc(Cl)cc1Cl` as the compound, how does the Potency read?
Answer: The Potency was “inactive”.

Question: For `N=C(N)SCCN1CCCCC1`, which Potency is on record?
Answer: The Potency was inconclusive [inhibitor, single point].

Question: For `CCc1cccc(CC)c1NC(=S)NCCc1ccc(O)c(O)c1`, which Potency is on record?
Answer: Its Potency is active: 22.4 µM.

Question: With `COCCCN1C(=O)C(O)=C(C(=O)c2ccc(C)o2)C1c1cccc(Br)c1` (stereo not given) as the compound, how does the Potency read?
Answer: The Potency was “inactive”.

Question: Which Potency does the source give for `CCCc1cc(=O)n2[nH]c(C)c(-c3ccccc3)c2n1` here?
Answer: Its Potency is inconclusive [inhibitor, single point].

Question: Which Potency does the source give for `O=c1oc2c(-c3ccc([N+](=O)[O-])cc3)cc(O)cc2s1` here?
Answer: Its Potency is inconclusive [inhibitor, partial curve].

Question: `COc1cc2c(cc1NC(=S)NC(=O)c1c(OC)cccc1OC)oc1ccccc12` was tested. Which Potency did it give?
Answer: Its Potency is inconclusive [inhibitor, single point].

Question: `CCC(C)Nc1nc(OCC(F)(F)F)nc(OCC(F)(F)F)n1` (stereo not given) was tested. Which Potency did it give?
Answer: Its Potency is “inactive”.

Question: How did the Potency turn out when `Cc1cc(C)n(-c2nc(O)cc(=O)[nH]2)n1` was run?
Answer: Its Potency is inconclusive [inhibitor, single point].

Question: Which Potency does the source give for `Cc1cc(N2CCC(C)CC2)nc2ccc(N3C(=O)CCC3=O)cc12` here?
Answer: The Potency was inconclusive [inhibitor, partial curve].

Question: How did the Potency turn out when `Cc1ccc(C(=S)NCS(=O)(=O)c2ccc(C)cc2)cc1` was run?
Answer: The Potency was inconclusive [inhibitor, single point].

Question: With `COc1cccc(-c2nc3cc(C)ccc3o2)c1` as the compound, how does the Potency read?
Answer: Its Potency is inconclusive [inhibitor, single point].

Question: How did the Potency turn out when `Cc1ccc(-c2nnn(CC(=O)N(CC3CCCO3)C(C(=O)NCC3CCCO3)c3ccc(F)cc3)n2)o1` (stereo not given) was run?
Answer: Its Potency is “inactive”.

Question: With `O=C(NC(=S)Nc1cc([N+](=O)[O-])ccc1Cl)c1ccccc1` as the compound, how does the Potency read?
Answer: The Potency was active: 8.91 µM.

Question: How did the Potency turn out when `Oc1ccc(Br)cc1CNn1cnnc1` was run?
Answer: Its Potency is inconclusive [inhibitor, partial curve, poor fit].

Question: With `Cc1csc(Sc2nc3c(c(=O)[nH]c(=O)n3C)n2Cc2ccccc2Cl)n1` as the compound, how does the Potency read?
Answer: Its Potency is inconclusive [inhibitor, partial curve].

Question: For `CC(c1ccc(F)cc1)n1cc(C(=O)NCCN(C)C)nn1` (stereo not given), which Potency is on record?
Answer: The Potency was “inactive”.

Question: `CCOC(=O)c1c(-c2ccc(OC)c(OC)c2)csc1NC(=O)C1CCCO1` (stereo not given) was tested. Which Potency did it give?
Answer: The Potency was inconclusive [inhibitor, partial curve].

Question: For `COc1ccc(Cc2c(O)nc(SCC(=O)N3CCCCCC3)[nH]c2=O)cc1`, which Potency is on record?
Answer: Its Potency is inconclusive [inhibitor, partial curve].

Question: With `Fc1ccc(OCc2nc(-c3ccc(Br)o3)no2)c(F)c1` as the compound, how does the Potency read?
Answer: Its Potency is inconclusive [inhibitor, single point].

Question: With `CC(=O)Nc1sc(C)c(C)c1C(=O)Nc1ccc(C)cc1` as the compound, how does the Potency read?
Answer: The Potency was “inactive”.

Question: Which Potency does the source give for `COc1cc(C2Nc3c(F)cccc3C3C=CCC32)cc(Br)c1OC` (stereo not given) here?
Answer: The Potency was active: 25.1 µM.

Question: For `CCOC(=O)C1CCN(Cc2cn(C)nc2-c2ccc(Oc3ccccc3)cc2)CC1`, which Potency is on record?
Answer: The Potency was “inactive”.
